This is one part of the list. Sequences were assembled here from the parent chain. Inactive controls read about 0.05.
B1: TEV protease; numbered along this chain (parent)
chain: MGESLFKGPRDYNPISSSICHLTNESDGHTTSLYGIGFGPFIITNKHLFRRNNGTLVVQSLHGVFKVKDTTTLQQHLVDGRDMIIIRMPKDFPPFPQKLKFREPQREERICLVTTNFQTKSMSSMVSDTSCTFPSGDGIFWKHWIQTKDGQCGSPLVSTRDGFIVGIHSASNFTNTNNYFTSVPKNFMELLTNQEAQQWVSGWRLNADSVLWGGHKVFMVKPEEPFQPVKEATQL

Variants of: B1
Assay: raw area under fraction-flipped curve 0-4 h after induction (AUC4h, not background-subtracted), DNA-recorder readout of cleavage of the substrate (dimensionless); higher = more cleavage of the substrate by the protease variant
Conditions: temperature: 34 °C; time window: 0-4 h after rhamnose induction
Method: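 In vivo DNA recorder in E. coli TOP10(DE3) ΔrhaA at 34 °C. Each TEVp single-site mutant (parent TEVp 0) is paired with a single-site variant of the 7-mer TEVs (canonical ENLYFQ|S). The substrate sits between flexible linkers in a Bxb1-sfGFP-TEVs-SsrA fusion, so cleavage stabilises Bxb1 and speeds flipping of a recombination array, read by NGS. The value is the raw area under the fraction-flipped curve over 0-4 h after rhamnose induction (AUC4h), with ≥20 reads per time point. It is not background-subtracted; inactive controls average about 0.047.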
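Note: Bxb1 expression induced with 0.2% (w/v) L-rhamnose at OD600 near 0.5, cultures sampled hourly, flipped fraction per protease–substrate barcode pair counted by paired-end Illumina sequencing.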

Variant | area with substrate ENAYFQS | area with substrate ENCYFQS | area with substrate ENDYFQS | area with substrate ENEYFQS | area with substrate ENFYFQS | area with substrate ENHYFQS | area with substrate ENIYFQS | area with substrate ENMYFQS | area with substrate ENNYFQS | area with substrate ENPYFQS | area with substrate ENQYFQS | area with substrate ENRYFQS | area with substrate ENSYFQS | area with substrate ENTYFQS | area with substrate ENVYFQS | area with substrate ENYYFQS | area with substrate ENGYFQS | area with substrate ENWYFQS | area with substrate ENKYFQS
MGESLFKGPRDYAPISSSICHLTNESDGHTTSLYGIGFGPFIITNKHLFRRNNGTLVVQSLHGVFKVKDTTTLQQHLVDGRDMIIIRMPKDFPPFPQKLKFREPQREERICLVTTNFQTKSMSSMVSDTSCTFPSGDGIFWKHWIQTKDGQCGSPLVSTRDGFIVGIHSASNFTNTNNYFTSVPKNFMELLTNQEAQQWVSGWRLNADSVLWGGHKVFMVKPEEPFQPVKEATQL [N13A] | 0.0614 | 0.0589 | 0.0639 | 0.0613 | 0.0674 | 0.053 | 0.104 | 0.0672 | 0.0627 | 0.0628 | 0.0592 | 0.0596 | 0.0614 | 0.0653 | 0.0953 | 0.0745 |  |  | 
MGESLFKGPRDYDPISSSICHLTNESDGHTTSLYGIGFGPFIITNKHLFRRNNGTLVVQSLHGVFKVKDTTTLQQHLVDGRDMIIIRMPKDFPPFPQKLKFREPQREERICLVTTNFQTKSMSSMVSDTSCTFPSGDGIFWKHWIQTKDGQCGSPLVSTRDGFIVGIHSASNFTNTNNYFTSVPKNFMELLTNQEAQQWVSGWRLNADSVLWGGHKVFMVKPEEPFQPVKEATQL [N13D] | 0.061 | 0.0577 | 0.0546 | 0.0546 | 0.0579 | 0.0631 |  | 0.0786 | 0.0495 | 0.0606 | 0.0611 | 0.0521 | 0.076 | 0.0667 | 0.0469 | 0.054 | 0.0563 | 0.0072 | 
MGESLFKGPRDYNRISSSICHLTNESDGHTTSLYGIGFGPFIITNKHLFRRNNGTLVVQSLHGVFKVKDTTTLQQHLVDGRDMIIIRMPKDFPPFPQKLKFREPQREERICLVTTNFQTKSMSSMVSDTSCTFPSGDGIFWKHWIQTKDGQCGSPLVSTRDGFIVGIHSASNFTNTNNYFTSVPKNFMELLTNQEAQQWVSGWRLNADSVLWGGHKVFMVKPEEPFQPVKEATQL [P14R] | 0.049 | 0.0858 | 0.0639 |  | 0.0642 | 0.0616 | 0.102 |  | 0.0622 |  | 0.0601 | 0.0597 | 0.0556 | 0.0727 | 0.0848 |  | 0.0691 | 0.0644 | 0.061
MGESLFKGPRDYNSISSSICHLTNESDGHTTSLYGIGFGPFIITNKHLFRRNNGTLVVQSLHGVFKVKDTTTLQQHLVDGRDMIIIRMPKDFPPFPQKLKFREPQREERICLVTTNFQTKSMSSMVSDTSCTFPSGDGIFWKHWIQTKDGQCGSPLVSTRDGFIVGIHSASNFTNTNNYFTSVPKNFMELLTNQEAQQWVSGWRLNADSVLWGGHKVFMVKPEEPFQPVKEATQL [P14S] | 0.061 | 0.0658 | 0.0587 | 0.0679 | 0.0797 |  | 0.0942 |  | 0.0665 | 0.0561 | 0.0698 | 0.0906 | 0.0618 | 0.0672 | 0.0706 | 0.0653 | 0.0688 | 0.072 | 
MGESLFKGPRDYNPASSSICHLTNESDGHTTSLYGIGFGPFIITNKHLFRRNNGTLVVQSLHGVFKVKDTTTLQQHLVDGRDMIIIRMPKDFPPFPQKLKFREPQREERICLVTTNFQTKSMSSMVSDTSCTFPSGDGIFWKHWIQTKDGQCGSPLVSTRDGFIVGIHSASNFTNTNNYFTSVPKNFMELLTNQEAQQWVSGWRLNADSVLWGGHKVFMVKPEEPFQPVKEATQL [I15A] | 0.0601 | 0.0579 | 0.0644 | 0.0585 | 0.0561 | 0.0625 |  |  | 0.0527 | 0.0724 | 0.0659 | 0.0589 | 0.0539 | 0.05 | 0.0677 |  | 0.0594 | 0.0467 | 0.0642
MGESLFKGPRDYNPWSSSICHLTNESDGHTTSLYGIGFGPFIITNKHLFRRNNGTLVVQSLHGVFKVKDTTTLQQHLVDGRDMIIIRMPKDFPPFPQKLKFREPQREERICLVTTNFQTKSMSSMVSDTSCTFPSGDGIFWKHWIQTKDGQCGSPLVSTRDGFIVGIHSASNFTNTNNYFTSVPKNFMELLTNQEAQQWVSGWRLNADSVLWGGHKVFMVKPEEPFQPVKEATQL [I15W] | 0.0589 | 0.0638 | 0.0548 | 0.0739 | 0.0509 | 0.0805 | 0.117 | 0.0661 | 0.0527 | 0.0667 | 0.0639 | 0.0635 | 0.0597 | 0.0695 | 0.0713 | 0.052 | 0.07 | 0.0554 | 0.068
MGESLFKGPRDYNPYSSSICHLTNESDGHTTSLYGIGFGPFIITNKHLFRRNNGTLVVQSLHGVFKVKDTTTLQQHLVDGRDMIIIRMPKDFPPFPQKLKFREPQREERICLVTTNFQTKSMSSMVSDTSCTFPSGDGIFWKHWIQTKDGQCGSPLVSTRDGFIVGIHSASNFTNTNNYFTSVPKNFMELLTNQEAQQWVSGWRLNADSVLWGGHKVFMVKPEEPFQPVKEATQL [I15Y] | 0.0621 | 0.0662 | 0.0557 | 0.0617 | 0.0655 | 0.0695 | 0.0877 | 0.0648 | 0.0594 |  | 0.0641 |  | 0.0649 | 0.0354 |  |  | 0.0591 | 0.0444 | 0.0729
MGESLFKGPRDYNPIWSSICHLTNESDGHTTSLYGIGFGPFIITNKHLFRRNNGTLVVQSLHGVFKVKDTTTLQQHLVDGRDMIIIRMPKDFPPFPQKLKFREPQREERICLVTTNFQTKSMSSMVSDTSCTFPSGDGIFWKHWIQTKDGQCGSPLVSTRDGFIVGIHSASNFTNTNNYFTSVPKNFMELLTNQEAQQWVSGWRLNADSVLWGGHKVFMVKPEEPFQPVKEATQL [S16W] | 0.0671 | 0.0618 | 0.0601 | 0.0603 | 0.062 | 0.0576 | 0.152 | 0.0643 | 0.0573 | 0.0608 | 0.0545 | 0.0639 | 0.0831 |  | 0.0866 | 0.0687 | 0.0866 |  | 0.0507

Reference: the supplement of paper PMC12217912
